Here are results for 19 molecules from the supplement of paper PMC10369915.

The other results are listed elsewhere or left out. No stated cut-off is given here; in the data, active = 3.2 or more and inactive = the rest. The signal is at background level for most entries.

The labels stand for the following.
B1: MAK16_Y282_YF (peptide)
chain: QRKRAYVEIEF
B2: MAML2_Y513 (peptide)
chain: KVMANYMYKAG
B3: MANEA_Y331_Y331C (peptide)
chain: TNGFTCGSSHQ
B4: MAGEC3_Y152_S155P (peptide)
chain: RRGTGYTLPLP
B5: MAPK14_Y323 (peptide)
chain: PVADPYDQSFE
B6: MAGED2_Y449 (peptide)
chain: GLRSYYETSKM
B7: MAML2_Y515_M514V_YF (peptide)
chain: MANFVYKAGPS
B8: MAN2A1_Y442_K440R (peptide)
chain: LQFRNYQQLFD
B9: MAPRE2_Y162 (peptide)
chain: FYDANYDGKEY
B10: MAML2_Y513_YF (peptide)
chain: KVMANYMFKAG
B11: MAP1A_Y1555_Q1553H (peptide)
chain: ALEHKYWALGQ
B12: MAP3K4_Y582 (peptide)
chain: MWGSDYVQLSR
B13: MAGED2_Y448_R446C_YF (peptide)
chain: WGLCSYFETSK
B14: LYZL6_Y140 (peptide)
chain: GRPLFYWLTGC
B15: MAP1A_Y2217 (peptide)
chain: TRHDEYLEVTK
B16: MACC1_Y803_R804T_YF (peptide)
chain: HFGNNYTDVLQ
B17: MAP1B_Y1921_S1917R_YF (peptide)
chain: PRDSGYSFETI
B18: MAGED2_Y449_YF (peptide)
chain: GLRSFYETSKM
B19: MAPRE2_Y167 (peptide)
chain: YDGKEYDPVEA
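Further: displayed peptides selected on beads carrying the immobilized SH2 domain, with library peptides lacking any tyrosine serving as negative controls.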

One experiment has as its target SHP2 C-SH2 domain E139D. The experiment can be described thus: enrichment score (SH2-bound / input frequency) (ratio); bacterial display of known human phosphotyrosine sites (pTyr-Var adds point mutants) read by sequencing; higher = stronger binding; tyrosines were phosphorylated by kinases first. The following applies: peptide library: pTyr-Var.
B1: the enrichment score is inactive: 0.46.

Take B2: the enrichment score is inactive: 1.02.

Regarding B3, the enrichment score is inactive: 0.664.

Consider B4, for which the enrichment score is inactive: 0.235.

For the molecule B5, the enrichment score is inactive: 0.435.

Take B6: the enrichment score was inactive: 1.21.

Take B7: the enrichment score is inactive: 1.26.

Take B8: the enrichment score was inactive: 0.891.

Consider B9, for which the enrichment score was inactive: 0.802.

For the molecule B10, the enrichment score is inactive: 1.23.

Consider B11, for which the enrichment score was inactive: 0.967.

For B12, the enrichment score is inactive: 0.946.

On to B13, for which the enrichment score is inactive: 1.17.

In the case of B14, the enrichment score is inactive: 1.23.

As for B15, the enrichment score was inactive: 0.757.

Take B16: the enrichment score is inactive: 0.844.

For the molecule B17, the enrichment score is inactive: 0.826.

Take B18: the enrichment score was inactive: 0.78.

B19: the enrichment score was inactive: 0.703.

The target in a further experiment is SHP2 C-SH2 domain wild-type. The description is as above. The following applies: peptide library: pTyr-Var.
With B1, the enrichment score is inactive: 0.423.

Turning to B2, the enrichment score was inactive: 0.929.

Turning to B3, the enrichment score is inactive: 0.64.

As to B4, the enrichment score is inactive: 0.247.

Consider B5, for which the enrichment score was inactive: 0.632.

In the case of B6, the enrichment score was inactive: 0.862.

With B7, the enrichment score is inactive: 0.919.

As to B8, the enrichment score is inactive: 0.734.

With B9, the enrichment score is inactive: 0.585.

For B10, the enrichment score was inactive: 1.16.

For B11, the enrichment score was inactive: 0.901.

Turning to B12, the enrichment score is inactive: 0.702.

B13: the enrichment score was inactive: 1.66.

For the molecule B14, the enrichment score is inactive: 1.41.

As to B15, the enrichment score was inactive: 0.387.

Turning to B16, the enrichment score is inactive: 1.54.

Turning to B17, the enrichment score was inactive: 0.749.

For B18, the enrichment score is inactive: 0.876.

As for B19, the enrichment score was inactive: 0.577.

Another experiment has as its target SHP2 N-SH2 domain L43F. Described as above. The following applies: peptide library: pTyr-Var.
Take B1: the enrichment score is inactive: 1.75.

Regarding B2, the enrichment score is inactive: 0.871.

Consider B3, for which the enrichment score was inactive: 0.717.

Consider B4, for which the enrichment score is inactive: 0.319.

As for B5, the enrichment score was inactive: 0.609.

With B6, the enrichment score was inactive: 0.921.

Consider B7, for which the enrichment score was inactive: 1.06.

As for B8, the enrichment score is inactive: 0.649.

With B9, the enrichment score is inactive: 0.526.

For the molecule B10, the enrichment score was inactive: 1.18.

In the case of B11, the enrichment score was inactive: 0.918.

Consider B12, for which the enrichment score was inactive: 0.848.

For the molecule B13, the enrichment score is inactive: 1.1.

Consider B14, for which the enrichment score is inactive: 1.14.

With B15, the enrichment score is inactive: 0.494.

Take B16: the enrichment score is inactive: 0.969.

With B17, the enrichment score is inactive: 0.925.

Take B18: the enrichment score was inactive: 0.812.

Consider B19, for which the enrichment score was inactive: 0.446.

Another experiment concerns the target SHP2 N-SH2 domain T42A. Described as above. The following applies: peptide library: pTyr-Var.
With B1, the enrichment score was active: 4.11.

As to B2, the enrichment score is inactive: 0.799.

With B3, the enrichment score was inactive: 0.548.

On to B4, for which the enrichment score was inactive: 0.415.

B5: the enrichment score is inactive: 0.569.

On to B6, for which the enrichment score is inactive: 0.834.

For the molecule B7, the enrichment score was inactive: 0.94.

B8: the enrichment score is inactive: 0.989.

With B9, the enrichment score is inactive: 0.668.

With B10, the enrichment score was inactive: 1.06.

Take B11: the enrichment score was inactive: 1.07.

Consider B12, for which the enrichment score is inactive: 0.982.

On to B13, for which the enrichment score was inactive: 1.02.

On to B14, for which the enrichment score was inactive: 0.964.

For B15, the enrichment score was inactive: 0.43.

In the case of B16, the enrichment score was inactive: 1.95.

As for B17, the enrichment score was inactive: 0.739.

As for B18, the enrichment score is inactive: 0.465.

Regarding B19, the enrichment score is inactive: 0.505.

A further experiment deals with SHP2 N-SH2 domain T52S. The description is as above. The following applies: peptide library: pTyr-Var.
For B1, the enrichment score was inactive: 1.64.

As to B2, the enrichment score was inactive: 0.911.

Consider B3, for which the enrichment score was inactive: 0.603.

Take B4: the enrichment score is inactive: 0.291.

As for B5, the enrichment score was inactive: 0.746.

For B6, the enrichment score is inactive: 0.989.

With B7, the enrichment score was inactive: 1.08.

Consider B8, for which the enrichment score is inactive: 0.576.

As to B9, the enrichment score is inactive: 0.583.

As for B10, the enrichment score is inactive: 1.34.

As for B11, the enrichment score was inactive: 0.778.

Take B12: the enrichment score is inactive: 0.856.

As to B13, the enrichment score was inactive: 1.09.

As for B14, the enrichment score is inactive: 1.1.

For B15, the enrichment score was inactive: 0.543.

With B16, the enrichment score was inactive: 0.925.

With B17, the enrichment score is inactive: 0.697.

As to B18, the enrichment score was inactive: 0.79.

In the case of B19, the enrichment score is inactive: 0.468.

For a further experiment, the target named is SHP2 N-SH2 domain wild-type. Described as above. The following applies: peptide library: pTyr-Var.
For B1, the enrichment score was inactive: 0.604.

As for B2, the enrichment score was inactive: 1.05.

As to B3, the enrichment score was inactive: 0.842.

As to B4, the enrichment score was inactive: 0.373.

For B5, the enrichment score is inactive: 0.719.

On to B6, for which the enrichment score is inactive: 0.826.

Turning to B7, the enrichment score was inactive: 0.985.

On to B8, for which the enrichment score is inactive: 0.735.

For B9, the enrichment score is inactive: 0.585.

On to B10, for which the enrichment score was inactive: 1.26.

As for B11, the enrichment score was inactive: 1.01.

As for B12, the enrichment score is inactive: 0.78.

B13: the enrichment score was inactive: 1.09.

On to B14, for which the enrichment score was inactive: 1.4.

Turning to B15, the enrichment score was inactive: 0.645.

For B16, the enrichment score is inactive: 0.947.

As for B17, the enrichment score is inactive: 0.674.

B18: the enrichment score was inactive: 0.702.

For the molecule B19, the enrichment score was inactive: 0.697.
